# ± gives the standard deviation of the averaged measurements. This is one part of the list.
# Test system: PfAP2-LT AP2 domain (GST-tagged)
# Assay: gcPBM binding intensity (ln(normalized median fluorescence intensity)); higher = stronger DNA binding
# Summary of the method: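 An Agilent 4 × 180k array carrying primer-extended double-stranded 36-bp intergenic genomic probes and negative controls received GST-tagged P. falciparum DNA-binding domains expressed in E. coli, about 25 μg on average, for 1 h. The binding buffer contained 1× PBS, 1% milk, 0.2 mg/ml BSA, 0.5% salmon testes DNA and 0.03% Triton X-100. Binding intensity is the top Masliner-normalised natural-log median intensity across replicate spots of either probe orientation, read after Alexa488 anti-GST antibody staining and a 488 nm scan.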
row,Sequence,gcPBM binding intensity (ln)
1,AAAAAAAAATCATATTGTACGTAAAAAAAAAAAAAA [XGTACX_site476],8.65 ± 0.47
2,AATATGTTTTGTTAGGTTGGTGTTGGTAGAATGTTT [CACACA_negctrl_site1563],9.17 ± 0.3
3,GTAAATAAATAAATAAATAAATATATATATATATAT [CACACA_negctrl_site1737],9.22 ± 0.23
4,AATAAAAAAAAATTCACACAAAGTTAGATTAACTAT [CACACA_site4224],8.53 ± 0.52
5,AATGATCAGATATACACACACACAAAAAAAAAAAAA [CACACA_site7806],9.72 ± 0.47
6,ATATATTTTTATGTAGTGCATTTAAATAATAAATGC,8.54 ± 0.33
7,ATTTTTTCCAATTCTTTACCTTAGAAAGGTGTTCAA [CACACA_negctrl_site1401],8.55 ± 0.53
8,ACCTCATAATATTTAACACACAAAATTATATGTATG [CACACA_site1704],9.11 ± 0.36
9,ATATATATATAATGAAGTACGAAAAAATAAGAAATG [XGTACX_site4001],8.89 ± 0.49
10,ATTCTAAATAAATGTACACACAAAAATAAATGTATA [CACACA_site1732],8.98 ± 0.45
11,TTTATATTTAAAAGGATGCACTACAAATTCTAAATA,8.37 ± 0.38
12,TATCCTTATATTTGCACACACACACCCTAAAATGAA [CACACA_site1029],9.71 ± 0.29
13,AAGACAAATATGAAGAGTACATTTATATAAAAATTA [XGTACX_site5142],8.73 ± 0.57
14,CTACAATATCTTTAAAGTACTTTTATATAACTACCA [XGTACX_site6119],8.62 ± 0.45
15,TTATATTAAACAAACACACACATATAAATATAAATA [CACACA_site7174],9.23 ± 0.3
16,AAAACAAACAGACACACACACATATTTATATTTATA [CACACA_site7681],9.79 ± 0.4
17,TTTTATTTTATTCAATTTTTACTTTTATAAAAATAT [GTGCAC_negctrl_site578],8.32 ± 0.52
18,AATATTAGGTTATGTAGTACATAACAATAATTATAC [XGTACX_site5733],8.98 ± 0.47
19,GTGTTGGGAAAAGGCATGCACTTTTTTTTTTTTTTT,8.86 ± 0.35
20,ATGTATATGCAAACATGTACATATATAAACATATAT [XGTACX_site4159],9.03 ± 0.3
21,AAGGAATATGTATATACACACAGGTACATATTTATA [CACACA_site6344],9.27 ± 0.45
22,ATAAAGAATATAAATACACACTTAAATATATATTAT [CACACA_site6071],8.85 ± 0.42

row,Sequence,gcPBM binding intensity (ln)
1,TAATTTTATATAAATTGTACAAAAATATTTTATTAA [XGTACX_site7166],8.18 ± 0.45
2,TGCAGGTGTTATTCACGTACGCATTTGATTAAAAAA [XGTACX_site7743],8.65 ± 0.42
3,TAAAATATACAAATTTGTACATATATATGTATGTAT [XGTACX_site1127],8.97 ± 0.4
4,ATAAAAACATAAAAATGTACATATATATATATATAT [XGTACX_site7165],9.73 ± 0.47
5,ATTAGAAAATAAAATAATAAATAAAATAAAAAAAAA [CACACA_negctrl_site409],8.47 ± 0.72
6,AAATATATATATAGTACATGCAGTAGATAATTTAAT [TGCATGCA_site299],9.24 ± 0.33
7,AATTCACATGTGAACTAAAAGAATATTATATATATA [CACACA_negctrl_site1632],8.77 ± 0.4
8,ATTAGGTATTTTTTTTGTACATATTATATAATGTGA [XGTACX_site3815],8.75 ± 0.4
9,CACAAAAATTTATACACACACATATAAAATATAGAT [CACACA_site6218],9.45 ± 0.38
10,TTCACTATACAAAGGTGTACTTAATTTTGTCCCATT [XGTACX_site7483],8.78 ± 0.5
11,AGTTATTACACACAAACATGCATTAATATCAAAAAA [TGCATGCA_site63],9.19 ± 0.46
12,AATATAAAATAGAAAAATGAAAAAAAAAAAAAGGGT [CACACA_negctrl_site1263],9.14 ± 0.62
13,TGTTTGATGGTACACGTACACACCTTGCAAATATTT [CACACA_site888],9.13 ± 0.4
14,TATATATATTTTAACACACACATATATATATTTATA [CACACA_site2765],9.01 ± 0.37
15,CAATAAATAATAAATACATGCAAGTATGAAGATATA [TGCATGCA_site859],9.12 ± 0.44
16,AGTGGGATTTTTAATTGTACATAAATAATATCATAA [XGTACX_site4163],8.45 ± 0.33
17,CATGTTATATATATATGTACTAAAAATATAATATAA [XGTACX_site1978],8.61 ± 0.42
18,TTTTTTTTTTTTGGTAGTACATAAATATTTTATGGA [XGTACX_site6851],8.3 ± 0.46
19,AATAAGAATTAAAAATGTACAAAAAAATGTATTTAT [XGTACX_site8005],8.79 ± 0.43
20,AAGTATAAAATATTTTGTACTTAAAAAATTATATGG [XGTACX_site2180],8.46 ± 0.42
21,AACAAATTTTTTATTAAACACACAAACATATATATA [CACACA_site8588],8.66 ± 0.44
22,TGTGAATATATCTTTAAAAAGGATAAATAATAATTT [CACACA_negctrl_site507],8.47 ± 0.52

row,Sequence,gcPBM binding intensity (ln)
1,GCTCATTGAAATTATACACACCAAATATATAAATAT [CACACA_site5385],8.89 ± 0.35
2,AAAAAAAAAAAGATAAATACAAGTTACACAAAAAAA [GTGCAC_negctrl_site664],8.57 ± 0.63
3,ACGTTGCGACGCAAGGTGCTTATTTTCTTATAAATA,8.46 ± 0.4
4,ATATAAAATAAAAAAAAAAAAAAAAAAAAAAAAAAA [CACACA_negctrl_site1234],8.22 ± 0.45
5,TTTTTGTATCCTTTTAATATTAAATAAAAGGAATGT [CACACA_negctrl_site1468],8.23 ± 0.45
6,TTAATGTTTGAAAGAGTGCACATAACAAAAAAAAAA [GTGCAC_site9623],8.79 ± 0.53
7,TAATTAAAAAATGAATAAATGAATAAATAAATAAAT [CACACA_negctrl_site838],8.59 ± 0.48
8,TATGAATATTGCATGTGTACCTATTATCCTTTTAAA [XGTACX_site4311],8.74 ± 0.42
9,ATAATTATTTTCCCGTGTACTTATTTTTTTCAAGTA [XGTACX_site8843],8.82 ± 0.44
10,TTAAAATATGTAGCTACACACACATAAACAAAATAA [CACACA_site8244],9.28 ± 0.42
11,TAATTATAATAATAACGTACATATATAAAATGGTGA [XGTACX_site8434],8.91 ± 0.37
12,TATATATATATATAGGTGCTATAATTTATATACACA,9.19 ± 0.16
13,TGTAGTCTGGAGAAAAGTACACAGTATCTGGTAGCT [XGTACX_site2012],8.82 ± 0.46
14,TTTTTTTTTCTGAATTTATAATTCAAAAATATATAT [CACACA_negctrl_site300],8.16 ± 0.52
15,ATAATACCCATTATCTTACAACAAAATGCAAACAAA [CACACA_negctrl_site1037],8.74 ± 0.41
16,AACATAATATCATATACACACAAAAATATTGAAATA [CACACA_site2160],9.09 ± 0.37
17,AAAAAAAAAGAAAAACGTACGTTTATTTAATATATA [XGTACX_site4018],8.61 ± 0.48
18,TTATATAACTTTTCTAGTACTTGTATAAATTCCTAC [XGTACX_site3685],8.69 ± 0.54
19,AAAATTAGATTATGCACACACACTTAAAAATAATAA [CACACA_site1975],9.32 ± 0.34
20,AAGAACATATTATATACATGCATAATTCGATAGATT [TGCATGCA_site882],8.9 ± 0.35
21,CATTTTATTCTATATGCATGTTAAAAAATGTGTTGA [TGCATGCA_site128],8.58 ± 0.38
22,TAATAATAAAAAATACGTACATATTATTTATATATG [XGTACX_site853],8.62 ± 0.4

row,Sequence,gcPBM binding intensity (ln)
1,ATATATAAGAACATATATATTGGAAATATTGAATTT [XGTACX_negctrl_site121],8.59 ± 0.45
2,AATAAAAATATTATATGTACATATTTTAATATATAT [XGTACX_site1259],8.54 ± 0.39
3,TTTTATTTTTTCTATACATGCATGTCCAATTTTCTT [TGCATGCA_site304],9.28 ± 0.54
4,TTATGGTATAAAAAAATACACACTTATATATATTCT [CACACA_site488],8.73 ± 0.38
5,TTTATTATATGCACACGTACATATAATATATATATA [XGTACX_site4108],8.82 ± 0.33
6,TTTGCAACATATAAAAGTACAAATAATATATTTATT [XGTACX_site890],8.6 ± 0.41
7,ATAATAAATCATCATATTACATTTATCTTTGTTGGA [CACACA_negctrl_site849],8.6 ± 0.59
8,TACTTATTTTTATAGCATTTCACGGAGGTAGTAATA [CACACA_negctrl_site468],8.6 ± 0.39
9,AACTGTAATTTTATACGTACATAAATAATATTATAT [XGTACX_site4277],8.7 ± 0.4
10,AGCAGTTTTTTTTTTTTTTTTTTTTTTATTAAAAGC [XGTACX_negctrl_site392],8.51 ± 0.35
11,TACATATATAAAAAAACACACACATATATATATATA [CACACA_site8315],9.665 ± 0.021
12,TGTATAATAAGGAAGAGTACAAGTAAATACACACAT [XGTACX_site2084],9.37 ± 0.4
13,TGTATTTATAGACACACACACTTTCTTTTTTTAAGA [CACACA_site7010],9.1 ± 0.25
14,AACAATTAGAACTTTGCACACTTCTATATATTTTGT [CACACA_site674],9.36 ± 0.44
15,AAGTGAAATAAAATATGTACATATATGTATATATAA [XGTACX_site4473],9.01 ± 0.4
16,TATATATAAAATGTATGTACATATTTATTTATATAG [XGTACX_site657],8.53 ± 0.38
17,AAAAAAAAAGAATGTGAACACACACCGTGAATATAA [CACACA_site8342],9.28 ± 0.4
18,TTTTTTCTTCGTGTATTAAGTCACAATAGGAAAAAA [GTGCAC_negctrl_site644],8.18 ± 0.31
19,TATATATATAACATTGTACACACAAAGAAATAATAT [CACACA_site8998],9.16 ± 0.43
20,ATCGGTATATTATTACATGAATAAACTTACACACAC [TGCATGCA_negctrl_site21],9.53 ± 0.28
21,TTGTATTAATAATTTTTTATATTATAGTTTATAATA [GTGCAC_negctrl_site130],8.37 ± 0.49
22,TTACAAAACACTTATACACACATATATATATATATA [CACACA_site2716],9.785 ± 0.078
